Measurements taken from the supplement of paper PMC7125110.
± gives the standard error. Variants at the floor of the assay are shown more often than the library holds them.

B1: glmS ribozyme (parent)
chain: AUAAAAGCGCCAGAACUACAGAAAUGUAGUUGACGAGGAGGAGGUUUAUCGAAUUUUCGGCGGAUGCCUCCAAA

Assays:
Details in all cases: with glucosamine-6-phosphate
[1] = variants of: B1; experiment: self-cleavage kobs at 40 uM GlcN6P; higher = faster cleavage; RNA array
In short: (§1)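 Sequenced MiSeq chips were the platform: E. coli RNA polymerase transcribed barcoded ribozyme variants on them in situ, and a hybridised Cy3 probe tracked these at 37 °C. After glucosamine-6-phosphate (40 μM to 10 mM) in HEPES/KCl/Mg(OAc)2 buffer was flowed in, tiles were imaged over ~14 h. Signals normalised to baseline and to non-cleaving reference variants were reduced to per-tile medians and fit to one- or two-exponential decays to obtain kobs. kcat and KM were derived through weighted Michaelis–Menten fits across concentrations.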

[2] = variants of: B1; experiment: self-cleavage kobs at 10000 uM GlcN6P; higher = faster cleavage; RNA array
In short: as §1

[3] = variants of: B1; experiment: self-cleavage kobs at 640 uM GlcN6P; higher = faster cleavage; RNA array
In short: as §1

[4] = variants of: B1; experiment: self-cleavage kobs at 160 uM GlcN6P; higher = faster cleavage; RNA array
In short: as §1

[5] = variants of: B1; experiment: self-cleavage kobs at 2500 uM GlcN6P; higher = faster cleavage; RNA array
In short: as §1

Variant | self-cleavage kobs at 40 uM GlcN6P [1] [s⁻¹] | self-cleavage kobs at 10000 uM GlcN6P [2] [s⁻¹] | self-cleavage kobs at 640 uM GlcN6P [3] [s⁻¹] | self-cleavage kobs at 160 uM GlcN6P [4] [s⁻¹] | self-cleavage kobs at 2500 uM GlcN6P [5] [s⁻¹]
U30C A64C G66U | < 1e-05 | < 1e-05 |  |  | 
A15G C71A | 0.000251 ± 5.9e-05 | 0.005 ± 0.0016 | 0.00108 ± 0.00025 | 0.00102 ± 0.00025 | 0.006 ± 0.0015
U30G A39G C58G G59A | < 1e-05 |  |  |  | 
G35C G37C G51U | < 1e-05 |  |  |  | 
G29A G35C A64G | < 1e-05 | < 1e-05 |  |  | 
G37C A42U | < 1e-05 |  |  | < 1e-05 | 
C34A C58G | < 1e-05 | < 1e-05 | < 1e-05 | < 1e-05 | < 1e-05
G35A A53U | < 1e-05 | < 1e-05 | < 1e-05 | < 1e-05 | 
G32A G38C G59A C61G | < 1e-05 |  |  |  | < 1e-05
G29C A33U A48C U55A | < 1e-05 | < 1e-05 |  |  | 
G35C G59U | < 1e-05 | < 1e-05 | < 1e-05 | < 1e-05 | < 1e-05
A33C A64G | < 1e-05 |  | < 1e-05 |  | 
G37U U46G C50U G60U | < 1e-05 |  |  |  | < 1e-05
G29C U31C C34U G62C | < 1e-05 |  |  |  | 
C16U G40U C68G | < 1e-05 | < 1e-05 |  | < 1e-05 | 
A15G A52C U56C C58U C71G | < 1e-05 |  |  |  | < 1e-05
A36G U45G | < 1e-05 | < 1e-05 | < 1e-05 | < 1e-05 | < 1e-05
A15G C16A U30A G38C | < 1e-05 | < 1e-05 |  |  | 
U30G A36G C71G | < 1e-05 | < 1e-05 |  |  | < 1e-05
U31A C61U | < 1e-05 |  |  |  | 
G35A C61G | < 1e-05 | < 1e-05 | < 1e-05 |  | < 1e-05
G37A C68A | < 1e-05 | < 1e-05 | < 1e-05 | < 1e-05 | < 1e-05
C34A A36G A39C | < 1e-05 | < 1e-05 |  |  | < 1e-05
G32A G44C C67U | < 1e-05 | 0.00011 ± 2.3e-05 |  |  | 0.000148 ± 4.6e-05
C16U G40C | 0.00011 ± 1.1e-05 |  | 0.000837 ± 8.6e-05 | 0.000291 ± 3.7e-05 | 0.00184 ± 0.00021

Variant | self-cleavage kobs at 40 uM GlcN6P [1] [s⁻¹] | self-cleavage kobs at 10000 uM GlcN6P [2] [s⁻¹] | self-cleavage kobs at 640 uM GlcN6P [3] [s⁻¹] | self-cleavage kobs at 160 uM GlcN6P [4] [s⁻¹] | self-cleavage kobs at 2500 uM GlcN6P [5] [s⁻¹]
A15U A33U C61G | < 1e-05 |  |  |  | 
G38U G44U G60A | < 1e-05 | < 1e-05 |  |  | 
G38U G40A G66A | < 1e-05 | < 1e-05 |  | < 1e-05 | 
A33G A36U A53U | < 1e-05 | < 1e-05 |  |  | < 1e-05
G29A G62C | < 1e-05 | < 1e-05 | < 1e-05 |  | 
A14U G38U G63U | < 1e-05 |  |  |  | 
C19A G59U | < 1e-05 | 3.11e-05 ± 1.5e-05 |  |  | 
G35C G38U C71G | < 1e-05 |  |  |  | 
G29A A39U U69A | < 1e-05 |  |  |  | 
A36U A39U U55C | < 1e-05 |  | < 1e-05 |  | 
A33G G60A | < 1e-05 | < 1e-05 |  |  | < 1e-05
A33U C67G | < 1e-05 |  | < 1e-05 | < 1e-05 | 
G37U U54A | < 1e-05 |  |  |  | 
G35A G41U | < 1e-05 | < 1e-05 | < 1e-05 | < 1e-05 | < 1e-05
A39C U56G | 5.55e-05 ± 7.3e-06 |  |  |  | 
C16U G63U G66A | < 1e-05 |  |  |  | 
A36G U56G | < 1e-05 |  |  |  | 
G38U G43U C71G | < 1e-05 | < 1e-05 |  |  | 
U30G A33C | < 1e-05 |  |  |  | 
A33G A42G | < 1e-05 | < 1e-05 | < 1e-05 | < 1e-05 | < 1e-05
G29U G44U G60U | < 1e-05 |  | < 1e-05 | < 1e-05 | 
A15U A39C | 3.4e-05 ± 6.3e-06 | 0.00102 ± 7.3e-05 | 0.000287 ± 3.8e-05 |  | 0.000499 ± 5.7e-05
A14U U30C A33C C50U | < 1e-05 |  |  |  | 
G37U A39U C70G | < 1e-05 |  |  |  | 
A39C U47C C50A | < 1e-05 |  |  |  | 

Variant | self-cleavage kobs at 40 uM GlcN6P [1] [s⁻¹] | self-cleavage kobs at 10000 uM GlcN6P [2] [s⁻¹] | self-cleavage kobs at 640 uM GlcN6P [3] [s⁻¹] | self-cleavage kobs at 160 uM GlcN6P [4] [s⁻¹] | self-cleavage kobs at 2500 uM GlcN6P [5] [s⁻¹]
A15U U45A A48U | < 1e-05 |  |  |  | 
A33C C68U | < 1e-05 | < 1e-05 |  | < 1e-05 | < 1e-05
U30A U49C | < 1e-05 |  |  |  | 
C16U G29U | 0.000315 ± 2.9e-05 |  |  |  | 
U30G U56A | 0.000125 ± 1.6e-05 | 0.00771 ± 0.0011 | 0.00146 ± 0.00024 | 0.000498 ± 0.0001 | 0.003 ± 0.00057
A36U G62C | < 1e-05 | < 1e-05 | < 1e-05 |  | 
G35A A39G G44U | < 1e-05 |  | < 1e-05 |  | < 1e-05
G37C G44U | < 1e-05 |  | < 1e-05 |  | 
G37C U54A U69G | < 1e-05 |  |  |  | 
G32A G37U | < 1e-05 | < 1e-05 | < 1e-05 |  | 
G29C G60C | < 1e-05 | < 1e-05 | < 1e-05 | < 1e-05 | < 1e-05
A15U A36U | < 1e-05 | < 1e-05 | < 1e-05 | < 1e-05 | 
G32U U46C C58A C71U | < 1e-05 |  |  |  | 
U30A G37C A64G | < 1e-05 |  |  |  | 
A15C A39C C61G | < 1e-05 | < 1e-05 |  |  | 
G35U G37C U49G C61U C67A | < 1e-05 | < 1e-05 |  |  | 
G32C U45G U65A | < 1e-05 | < 1e-05 | < 1e-05 |  | 
C34U G35U | < 1e-05 |  |  |  | 
A33U U56A | < 1e-05 |  |  | < 1e-05 | 
A36G A52U | < 1e-05 | < 1e-05 | < 1e-05 | < 1e-05 | < 1e-05
C16U U30A A48U A64C | < 1e-05 | < 1e-05 |  |  | 
U31G G43C G62C | < 1e-05 | < 1e-05 |  |  | 
C16A C50A G51A A52U | < 1e-05 | < 1e-05 |  |  | 
U31A G35U | < 1e-05 | < 1e-05 | < 1e-05 | < 1e-05 | < 1e-05
C34A G37A | < 1e-05 | < 1e-05 |  |  | 

Variant | self-cleavage kobs at 40 uM GlcN6P [1] [s⁻¹] | self-cleavage kobs at 10000 uM GlcN6P [2] [s⁻¹] | self-cleavage kobs at 640 uM GlcN6P [3] [s⁻¹] | self-cleavage kobs at 160 uM GlcN6P [4] [s⁻¹] | self-cleavage kobs at 2500 uM GlcN6P [5] [s⁻¹]
A33G U65C | < 1e-05 | < 1e-05 | < 1e-05 | < 1e-05 | 
G35A C71U | < 1e-05 | < 1e-05 | < 1e-05 | < 1e-05 | < 1e-05
A36C C67U | < 1e-05 | < 1e-05 |  |  | 
A15C G51C | < 1e-05 | < 1e-05 |  | < 1e-05 | < 1e-05
G29C A42U | < 1e-05 |  | < 1e-05 | < 1e-05 | 
U30G A52U U65C C67G C70G | < 1e-05 | < 1e-05 |  |  | 
G32A A64C | < 1e-05 |  |  | < 1e-05 | 
A15G G32U G43A U45A C50A C58G C71G | < 1e-05 | < 1e-05 | < 1e-05 |  | < 1e-05
A39C G60A | < 1e-05 | < 1e-05 |  | < 1e-05 | < 1e-05
G38A U49G | < 1e-05 |  | < 1e-05 | < 1e-05 | 
A33G A39U G41C | < 1e-05 | < 1e-05 |  |  | 
G35C U54A | < 1e-05 | < 1e-05 | < 1e-05 |  | < 1e-05
C16U G38C A48G C50U U55G | < 1e-05 |  |  |  | 
A33G G59U | < 1e-05 | < 1e-05 | < 1e-05 |  | 
A33U G43C U56A G59C | < 1e-05 |  |  |  | 
G29U C68U | 2.51e-05 ± 1e-05 | 0.000719 ± 7.8e-05 | 0.00022 ± 2.5e-05 | 6.87e-05 ± 1e-05 | 0.000435 ± 5.5e-05
G35C G43U U47G G59C A64U C67U | < 1e-05 | < 1e-05 |  |  | 
A33C G38A | < 1e-05 |  | < 1e-05 | < 1e-05 | 
A33G C58A U65A | < 1e-05 | < 1e-05 |  |  | 
G32A U47C A48G C71U | < 1e-05 |  |  |  | 
A33G A36U U46C G63A A64G | < 1e-05 | < 1e-05 |  |  | 
G35U G43C | < 1e-05 |  | < 1e-05 | < 1e-05 | < 1e-05
G35U C58A | < 1e-05 | < 1e-05 | < 1e-05 | < 1e-05 | < 1e-05
